# Source: publication PMC4336329 (PLoS ONE, 2015)
# Screen size: about 310,000 compounds; about 2,200 (0.71%) showed an effect of 50% or more. The effect is printed as a negative number. Some of the results follow.
# Molecular target: human ether-à-go-go-related gene (hERG) potassium channel (human, UniProt Q12809)
# Assay: primary screen, population patch clamp on CHO cells stably expressing hERG
# Sequence of human ether-à-go-go-related gene (hERG) potassium channel (Q12809 whole entry, looked up): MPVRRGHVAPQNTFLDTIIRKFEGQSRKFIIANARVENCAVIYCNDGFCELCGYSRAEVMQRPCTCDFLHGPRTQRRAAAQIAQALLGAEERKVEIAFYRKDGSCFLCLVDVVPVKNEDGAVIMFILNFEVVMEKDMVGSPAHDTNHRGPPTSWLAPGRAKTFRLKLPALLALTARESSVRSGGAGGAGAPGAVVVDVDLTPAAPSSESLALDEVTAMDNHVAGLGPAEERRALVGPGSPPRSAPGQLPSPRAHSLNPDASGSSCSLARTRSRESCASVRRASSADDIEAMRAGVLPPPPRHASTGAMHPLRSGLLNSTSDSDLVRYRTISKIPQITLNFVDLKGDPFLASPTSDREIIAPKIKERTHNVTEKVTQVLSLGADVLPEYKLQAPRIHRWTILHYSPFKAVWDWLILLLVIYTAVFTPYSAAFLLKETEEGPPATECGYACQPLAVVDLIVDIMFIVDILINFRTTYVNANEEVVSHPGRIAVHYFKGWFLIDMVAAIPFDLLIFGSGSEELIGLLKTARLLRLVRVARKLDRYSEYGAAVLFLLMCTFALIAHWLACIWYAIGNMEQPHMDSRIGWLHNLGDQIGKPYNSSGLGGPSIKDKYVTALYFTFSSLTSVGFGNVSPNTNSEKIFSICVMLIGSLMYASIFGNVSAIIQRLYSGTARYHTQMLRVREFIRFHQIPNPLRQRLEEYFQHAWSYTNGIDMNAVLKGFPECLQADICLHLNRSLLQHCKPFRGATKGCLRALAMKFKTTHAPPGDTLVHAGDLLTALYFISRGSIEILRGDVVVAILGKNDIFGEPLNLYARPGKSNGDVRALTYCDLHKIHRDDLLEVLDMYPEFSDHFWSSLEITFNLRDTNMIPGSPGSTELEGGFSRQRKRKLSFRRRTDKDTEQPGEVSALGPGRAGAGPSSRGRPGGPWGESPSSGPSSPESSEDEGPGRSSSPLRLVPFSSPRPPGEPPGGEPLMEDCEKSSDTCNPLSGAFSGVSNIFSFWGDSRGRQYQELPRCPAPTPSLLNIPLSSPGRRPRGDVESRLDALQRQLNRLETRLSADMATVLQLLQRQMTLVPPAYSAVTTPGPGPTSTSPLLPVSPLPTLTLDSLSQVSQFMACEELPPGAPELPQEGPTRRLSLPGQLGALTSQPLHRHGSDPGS
row,Structure (SMILES),"hERG current change (%, negative = inhibition) at 1uM [%]"
1,COc1cc2c(cc1OC)CN(C(=O)C1CCCN(C(=O)c3ccc(Cl)cc3)C1)CC2 (stereo not drawn),2.58
2,CCC(=NCCC(c1ccccc1)c1ccccc1)c1c(O)[nH]c(=O)[nH]c1=O,-0.349
3,O=C(COC(=O)c1ccco1)Nc1ccc2c(c1)OCO2,2.4
4,CC(=O)c1cc2c(C)c(C(=O)c3ccccc3)oc2cc1O,3.85
5,COc1ccc(-c2nc(N3CCN(C)CC3)sc2-c2ccc(OC)cc2)cc1,-0.55
6,CCn1cc(Br)c(C(=O)Nc2ccc(F)c(Cl)c2)n1,0.368
7,O=C1NC2(CCCC2)Oc2ccccc21,14.2
8,COc1ccccc1C1=NOC(Cn2c(NCCOCCO)nc3c2c(=O)n(C)c(=O)n3C)C1 (stereo not drawn),2.8
9,CCC(=O)N(Cc1cc(=O)[nH]c2ccccc12)c1ccccc1C,0.489
10,NS(=O)(=O)c1ccc(CNC(=O)c2cnccn2)cc1,12.4
11,N#Cc1ccc(NC(=O)C2=COCCO2)cc1,6.18
12,COC(=O)C1=C(c2cc3ccccc3s2)C[C@@H]2CC[C@H]1N2C(=O)NCc1ccc(F)cc1,9.18
13,COC(=O)c1ccc(COc2ccc3ccc(=O)oc3c2)o1,6.21
14,CCSc1nnc(NC(=O)C(C)(C(F)(F)F)C(F)(F)F)s1,6.21
15,O=S(=O)(c1ccc(SCCOc2cccc(Br)c2)nc1)N1CCCC1,14.3
16,CC(C)CN(C(=O)Cn1c(=O)cnc2ccccc21)C1CCS(=O)(=O)C1 (stereo not drawn),13.2
17,CCCCCSc1nc2c(c(=O)[nH]c(=O)n2C)n1CC,15.7
18,COc1ccc(Nc2nc(-c3sc(C)nc3C)cs2)c(OC)c1,16.3
19,O=C(CN1CCN(c2ccccc2O)CC1)Nc1ccc2c(c1)OCCCO2,5.05
20,O=C(CCSCCC(=O)NCc1ccco1)NCc1ccco1,8.63
21,CC(=O)N(C)c1ccc(OCC(O)Cn2c(C)nc3ccccc32)cc1 (stereo not drawn),8.46
22,O=[N+]([O-])c1cccc(NC(=S)Nc2nc(-c3ccccc3Cl)cs2)c1,8.57

row,Structure (SMILES),"hERG current change (%, negative = inhibition) at 1uM [%]"
1,CSCCC(NS(=O)(=O)c1ccc(C)cc1)C(=O)NNC(=O)c1csc(N2CCOCC2)n1 (stereo not drawn),32.2
2,Fc1ccc(CN2CCC(Cc3ccccc3)CC2)cc1F,11.8
3,C/C(CCN1CCc2nc(-c3ccccc3)c(-c3ccccc3)cc2C1)=N\OC[C@@H](C)[C@H](OCc1ccccc1)C(C)C,22.8
4,Cc1cccc(N(CC(=O)Nc2c(C)n(C)n(-c3ccccc3)c2=O)S(C)(=O)=O)c1,0.336
5,Cc1cccc(C2c3[nH]c4ccccc4c3CCN2C(=O)CN2CCOC2=O)n1 (stereo not drawn),3.13
6,COc1ccccc1NC(=O)c1ccc(NS(C)(=O)=O)cc1,-1.18
7,c1ccc(-c2[nH]ncc2-c2nc3ccccc3[nH]2)cc1,3.96
8,CCOc1cc(C(=S)N2CCOCC2)ccc1OS(=O)(=O)c1ccccc1[N+](=O)[O-],5.67
9,COC(=O)C1=C(C)n2nnnc2NC1c1cc2ccccc2o1 (stereo not drawn),-6.78
10,CC(C)(C)c1ccc(CSc2cnn(C(C)(C)C)c(=O)c2Cl)cc1,15.7
11,CC(=O)NCC(=O)OCN1C(=O)c2ccccc2C1=O,10.7
12,Cc1cccc(OCCNC(=S)NC(=O)c2cncc(Br)c2)c1,19.7
13,COc1ccccc1-c1coc2c(CN3C(C)CCCC3C)c(O)ccc2c1=O (stereo not drawn),18
14,Cc1nc2ccccc2c(=O)n1NC(=O)c1ccccc1Br,10.3
15,Cc1ccccc1OCC(=O)N/N=C/c1cccc(Oc2ccc([N+](=O)[O-])cc2[N+](=O)[O-])c1,10.5
16,COCCN(CCOC)C(=O)C12CCC(C)(C(=O)C1)C2(C)C (stereo not drawn),11.1
17,O=C(CN1CCN(S(=O)(=O)c2ccccc2)CC1)NC(=O)NCc1ccco1,6.34
18,CSc1ncccc1C(=O)OCC(=O)c1ccc2c(c1)NC(=O)CO2,14
19,CCOC(=O)C1=C(C)OC(N)=C(C#N)C1c1cc2c(cc1Br)OCO2 (stereo not drawn),5.26
20,O=C(CSc1nc(=O)n2ccccc2n1)NC1CCCCC1,8.07
21,Cc1onc(C(=O)NCCc2ccccc2)c1[N+](=O)[O-],10.5
22,CC12CCC(=O)N1C(C(=O)OCC(=O)Nc1ccc(Cl)c(Cl)c1)CS2 (stereo not drawn),-1.24

row,Structure (SMILES),"hERG current change (%, negative = inhibition) at 1uM [%]"
1,N/C(=N\OC(=O)c1ccccc1F)c1cccc([N+](=O)[O-])c1,12.9
2,CCOC(=O)CCCCCNC(=O)c1c(O)[nH]c(=O)[nH]c1=O,15.6
3,CN1CCCC(OC(=O)c2cccc(S(=O)(=O)N3CCCCCC3)c2)C1.Cl (stereo not drawn),-4.45
4,CCOc1ccc(NC(=O)c2ccc(CNc3c(N4CCCC4)c(=O)c3=O)cc2)cc1,12.4
5,Cc1ccccc1S(=O)(=O)NCc1cccnc1,11.9
6,CCCCNC(=O)c1ccc2c(c1)N(CC)C(=O)c1ccccc1S2(=O)=O,10.5
7,O=C1C2C(C(=O)N1/N=C/c1ccc([N+](=O)[O-])o1)C1C=CC2C12CC2 (stereo not drawn),7.99
8,CCc1ccccc1NC1=NCC(=O)N1C1CCCC1.Cl,15.1
9,Cc1ccccc1C(=O)Nc1ccc(O)c2c(=O)cc(-c3ccccc3Cl)oc12,3.07
10,COc1ccc(S(=O)(=O)N2CCN(Cc3ccc(OC)c(OC)c3)CC2)cc1,5.69
11,COc1ccc(C(=O)OCC(=O)Nc2cc(C)c(C)cc2[N+](=O)[O-])cc1,3.52
12,O=C(CCCCCN1C(=O)c2cccc3cccc(c23)C1=O)NCc1cccnc1,13.7
13,C/C(=N\NC(=S)NCc1ccccc1)c1ccc2ccccc2c1,10.9
14,CN(C1=NS(=O)(=O)c2ccccc21)c1ccc(OC(=O)c2ccncc2)cc1,6.26
15,C[C@@H]1CC2[C@@H]3CC[C@H]4CC(=O)CC[C@]4(C)C3=CC[C@]2(C)[C@@]1(O)C(=O)CO (stereo partly drawn),4.23
16,CCOc1ccc(C2C(=O)N(C3CCCCC3)CC(=O)N2CC2CCCO2)cc1OC (stereo not drawn),4.17
17,CC(C)c1ccc2[nH]c3nc(SCC(=O)NC4CC4)nnc3c2c1,16
18,COc1ccc(NS(=O)(=O)c2ccc(C)c(C(=O)O)c2)cc1,9.19
19,CC(C)Oc1ccc(CNC(=O)Cn2ccc3cc(S(=O)(=O)N4CCCC4)ccc32)cc1,19.3
20,CSc1ccc(CN(C)Cc2nc3ccccc3c(=O)[nH]2)cc1,-2
21,COc1ccccc1NS(=O)(=O)c1cc([N+](=O)[O-])ccc1N/N=C/c1c[nH]c2ccccc12,15.3
22,COC(=O)c1sc(-c2ccc(Cl)cc2)cc1NC(=O)/C=C/C(=O)O,14.3

row,Structure (SMILES),"hERG current change (%, negative = inhibition) at 1uM [%]"
1,CCOc1ccccc1OCCn1ncc2ccc(OC)c(OC)c2c1=O,10.6
2,CCOc1ccc(CC(=O)OCc2cc(=O)n3cc(Br)ccc3n2)cc1,-11
3,CS(=O)(=O)Nc1ccccc1N=C(c1ccccc1)c1ccccc1,14.3
4,Cc1c(-c2ccc(Cl)cc2)[n+](=O)c2c(n1[O-])CCCC2,7.11
5,O=C(Cc1ccccc1)Nc1scc(-c2ccccc2)c1C(=O)N1CCOCC1,-16.4
6,Cc1ccc(S(=O)(=O)CC(O)COc2ccc(F)cc2Cl)cc1 (stereo not drawn),4.98
7,O=C(CN1CCN(S(=O)(=O)c2ccc(F)cc2)CC1)N1CCOCC1,-1.04
8,COc1ccccc1NC(=O)c1sc2ncn(CC(=O)Nc3ccccc3)c(=O)c2c1C,17.6
9,CCOC(=O)C(=O)Nc1sc(C(=O)N(CC)CC)c(C)c1C#N,10.2
10,Cc1nnc(SC(C)C(=O)N(C)C2CCCCC2)n1N (stereo not drawn),10.5
11,O=C(Nc1nnc(-c2ccco2)s1)c1ccccc1,12.6
12,CN(C)C(=O)c1ccc(NC(=O)COc2ccc([N+](=O)[O-])cc2)cc1,-9.89
13,Cc1ccc2nc(-c3ccc(-c4ccccn4)s3)cn2c1,5.77
14,CC1CN(Cc2ccccc2)c2nc3c(c(=O)n(CC(N)=O)c(=O)n3C)n2C1 (stereo not drawn),18.7
15,O=S(=O)(c1cccc(-c2nc3n(n2)Cc2ccccc2-3)c1)N1CCCCC1,9.98
16,Cc1ccc(S(=O)(=O)N2CCCCCC2)cc1C(=O)NCc1ccccn1,6.94
17,Cc1ccc(C2/C(=C(\O)c3ccc4c(c3)OCCO4)C(=O)C(=O)N2CC2CCCO2)cc1 (stereo not drawn),13.1
18,C#CCO[C@@H]1C[C@H](n2cnc3c(=O)[nH]c(NC(=O)C(C)C)nc32)O[C@@H]1CO,15.4
19,CC1CC1C(=O)N(C)CC(=O)Nc1cccc(F)c1 (stereo not drawn),14.3
20,COc1ccc(CN(C(=O)c2oc3cc(C)ccc3c2C)C2CCS(=O)(=O)C2)cc1OC (stereo not drawn),10.1
21,Cc1nn(C(=O)c2c(-c3ccccc3)noc2C)c(C)c1N=Nc1cc(C(F)(F)F)cc(C(F)(F)F)c1,16.2
